Experimental findings from PMC4336329 (PLoS ONE, 2015) are described below.

About 14,000 (4.5%) of roughly 310,000 compounds showed an effect of 50% or more. The effect is printed as a negative number. The list shows a part of the results.
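Also: peak tail current of the secondary pulse compared with the same well before compound.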

The assay deals with human ether-à-go-go-related gene (hERG) potassium channel (human, UniProt Q12809). Briefly: primary screen, population patch clamp on CHO cells stably expressing hERG.
Sequence of human ether-à-go-go-related gene (hERG) potassium channel (Q12809 whole entry, looked up): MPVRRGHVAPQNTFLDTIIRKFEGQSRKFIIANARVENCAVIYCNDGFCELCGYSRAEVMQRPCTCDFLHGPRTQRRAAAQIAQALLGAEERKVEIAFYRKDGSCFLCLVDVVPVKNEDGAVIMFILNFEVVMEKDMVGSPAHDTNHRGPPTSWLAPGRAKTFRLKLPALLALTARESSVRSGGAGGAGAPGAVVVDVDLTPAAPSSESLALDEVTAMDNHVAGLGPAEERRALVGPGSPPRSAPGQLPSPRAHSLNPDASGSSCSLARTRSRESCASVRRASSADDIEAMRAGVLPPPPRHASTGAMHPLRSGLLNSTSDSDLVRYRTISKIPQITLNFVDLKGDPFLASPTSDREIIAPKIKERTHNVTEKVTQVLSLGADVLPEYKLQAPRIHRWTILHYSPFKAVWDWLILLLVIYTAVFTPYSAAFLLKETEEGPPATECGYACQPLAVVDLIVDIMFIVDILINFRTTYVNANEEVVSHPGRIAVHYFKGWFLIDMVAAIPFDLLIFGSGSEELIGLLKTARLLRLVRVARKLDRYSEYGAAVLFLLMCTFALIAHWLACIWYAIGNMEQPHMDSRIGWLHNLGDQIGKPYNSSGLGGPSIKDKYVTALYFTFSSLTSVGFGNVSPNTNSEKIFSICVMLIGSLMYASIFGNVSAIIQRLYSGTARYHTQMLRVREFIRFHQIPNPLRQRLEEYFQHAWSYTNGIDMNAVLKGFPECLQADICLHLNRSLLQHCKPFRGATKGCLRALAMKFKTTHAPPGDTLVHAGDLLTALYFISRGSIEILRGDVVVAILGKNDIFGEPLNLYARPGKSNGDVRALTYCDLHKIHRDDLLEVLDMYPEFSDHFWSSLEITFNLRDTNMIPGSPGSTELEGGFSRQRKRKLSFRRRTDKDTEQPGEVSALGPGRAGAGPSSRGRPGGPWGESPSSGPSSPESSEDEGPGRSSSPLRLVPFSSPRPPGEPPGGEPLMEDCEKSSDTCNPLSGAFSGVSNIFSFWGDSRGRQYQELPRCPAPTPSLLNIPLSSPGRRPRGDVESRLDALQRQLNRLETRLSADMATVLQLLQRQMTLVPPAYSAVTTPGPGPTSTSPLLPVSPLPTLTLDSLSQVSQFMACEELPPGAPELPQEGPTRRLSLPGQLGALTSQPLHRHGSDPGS
Turning to `C=CCN1C(=O)CN=C1Nc1ccc(OC)cc1OC.Cl`, the “hERG current change (%, negative = inhibition) at 10uM” value was 9.13%.
`Cc1nnc(-c2cnn(C)c2N)n1Cc1ccc2c(c1)OCO2`: the “hERG current change (%, negative = inhibition) at 10uM” value was determined as 5.96%.
In the case of `CCc1nccn1S(=O)(=O)c1cc(Br)ccc1OC` it was 15.8%; in that of `CC1(C)Cc2nc3sc4c(=O)n(Cc5ccccc5)cnc4c3cc2CS1`, -1.08%; in that of `O=C1CN(C(=O)C2CCCC2)CCN1`, 27.2%.
In the case of `CC(=O)Nc1ccc(S(=O)(=O)NCCc2cn3nc(C)c(C)nc3n2)cc1`, the “hERG current change (%, negative = inhibition) at 10uM” value is -20.9%.
Consider `CC(C)[C@H](NC(=O)c1cccc(S(=O)(=O)N2CCOCC2)c1)C(=O)Nc1nc2ccccc2s1`, for which the “hERG current change (%, negative = inhibition) at 10uM” value is reported as -10%.
Take `O=C(c1ccco1)N1CCN(CC(O)COc2ccc3oc4ccccc4c3c2)CC1` (centres unmarked): the “hERG current change (%, negative = inhibition) at 10uM” value is listed as -66.4%.
As for `C=CCN(c1ccccc1)S(=O)(=O)c1ccc(Cl)c(C(=O)OCC(=O)c2[nH]c(C)c(C(C)=O)c2C)c1`, the “hERG current change (%, negative = inhibition) at 10uM” value came out at 5.67%.
Consider `Cc1cc(=O)n2ncnc2n1COCCO`, for which the “hERG current change (%, negative = inhibition) at 10uM” value was found to be 0.381%.
Take `COc1cccc(C2=NOC(C(=O)Nc3ccccc3SC)C2)c1` (centres unmarked): the “hERG current change (%, negative = inhibition) at 10uM” value was -1.99%.
Take `Cc1ccc(NC(=O)CSc2nc3ccccc3c(=O)n2CC2CCCO2)cc1` (centres unmarked): the “hERG current change (%, negative = inhibition) at 10uM” value is on record as 0.693%.
As to `O=C(N/N=C/c1cccnc1)c1cccc(S(=O)(=O)N2CCCC2)c1`, the “hERG current change (%, negative = inhibition) at 10uM” value was found to be 15.1%.
The value for `COc1cc(/C=N/N2CCN(c3ccccc3OC)CC2)ccc1OC(C)=O` was 17.2%.
The value for `COc1cccc(-n2c(N)c(C(=O)Nc3c(C)n(C)n(-c4ccccc4)c3=O)c3nc4ccccc4nc32)c1` was -9.9%; that for `Cc1cccc(C)c1NS(=O)(=O)c1ccc2c(c1)NC(=O)CO2` was 5.47%; that for `COC(=O)c1ccccc1OC(=O)c1ccc(Br)o1` was -0.209%.
On to `Br.Cc1csc(Nc2cccc3ccccc23)n1`, for which the “hERG current change (%, negative = inhibition) at 10uM” value stood at 6.65%.
As for `COc1cc2c(cc1CN1CCN(C(=O)c3cc(OC)c(OC)c(OC)c3)CC1)OCO2`, the “hERG current change (%, negative = inhibition) at 10uM” value was determined as 7.88%.
With `CSC1=N/C(=C/c2ccc(-n3cncn3)cc2)C(=O)N1`, the “hERG current change (%, negative = inhibition) at 10uM” value was 6.6%.
For the molecule `Cc1cccc(NC(=O)/C=C/c2cccs2)n1`, the “hERG current change (%, negative = inhibition) at 10uM” value is -8.27%.
On to `O=C(O)CN1C(=O)C(=O)N(Cc2ccc(Cl)c(Cl)c2)C1=O`, for which the “hERG current change (%, negative = inhibition) at 10uM” value is -35.6%.
As to `Cc1ccc2c(c1)N(Cc1ccc([N+](=O)[O-])cc1)C=NS2(=O)=O`, the “hERG current change (%, negative = inhibition) at 10uM” value is listed as -45.9%.
The value for `CC1CCN(C(=O)CSc2n[nH]c(-c3cccs3)n2)CC1` was 6.37%.
As for `CCOC(=O)c1c(C)n(C)c2ccc(OC)c(NS(=O)(=O)CC)c12`, the “hERG current change (%, negative = inhibition) at 10uM” value is reported as -2.52%.
In the case of `COCCCNC(=O)CN1C(=O)c2ccccc2C1=O`, the “hERG current change (%, negative = inhibition) at 10uM” value is 4.45%.
Regarding `COc1ccc(OC)c(NC(=O)C(C)SCc2nc3sc(C)c(C)c3c(=O)[nH]2)c1` (centres unmarked), the “hERG current change (%, negative = inhibition) at 10uM” value was -14%.
In the case of `COc1ccc(S(=O)(=O)N2CCCCCC2)cc1C(=O)OC(C)C(N)=O` (centres unmarked) it was 13.6%; in that of `O=[N+]([O-])c1ccc(Cl)c(/C=N/n2c(-c3cccnc3)n[nH]c2=S)c1`, 11.2%.
Regarding `COCCN1C(=O)c2ccccc2C(C(=O)NCCN(C)C)C1c1ccc(F)cc1` (centres unmarked), the “hERG current change (%, negative = inhibition) at 10uM” value came out at 16.8%.
On to `Cc1ccc(C)c(NS(=O)(=O)c2ccc3c(c2)Cc2cc(S(=O)(=O)Nc4cc(C)ccc4C)ccc2-3)c1`, for which the “hERG current change (%, negative = inhibition) at 10uM” value came to 4.5%.
On to `CCCC(=O)Nc1cc(C)c(NC(=O)c2cccs2)cn1`, for which the “hERG current change (%, negative = inhibition) at 10uM” value is reported as -1.84%.
As to `CC(C)CC(=O)c1c[nH]c(C(=O)NCC2CCCO2)c1` (centres unmarked), the “hERG current change (%, negative = inhibition) at 10uM” value amounted to 12.1%.
Take `COc1ccc(C(=O)CCNc2ccc3c(c2)OCCO3)cc1`: the “hERG current change (%, negative = inhibition) at 10uM” value is recorded as 27.6%.
As to `Cc1cc(C)n(CC(=O)N2CCCC(N3CCN(c4cccc(C(F)(F)F)c4)CC3)C2)n1` (centres unmarked), the “hERG current change (%, negative = inhibition) at 10uM” value is reported as -19.5%.
As to `COc1ccc(-c2n[nH]c3c2CN(C(=O)c2ccc(OC)c(OC)c2)CC3)cc1`, the “hERG current change (%, negative = inhibition) at 10uM” value is given as -15.5%.
For the molecule `COC(=O)c1cn(C(=O)c2cccc(C)c2)c2ccccc12`, the “hERG current change (%, negative = inhibition) at 10uM” value is recorded as -10.8%.
The value for `Cc1ccc(NC(=O)COC(=O)CCc2c[nH]c(=O)[nH]2)cc1` was 1.45%.
Turning to `Cn1c(=O)c2c(nc(NCC3CCCO3)n2Cc2cccc(Br)c2)n(C)c1=O` (centres unmarked), the “hERG current change (%, negative = inhibition) at 10uM” value was -4.28%.
On to `O=C(COc1ccc(S(=O)(=O)N2CCCCC2)cc1)Nc1ccccc1F`, for which the “hERG current change (%, negative = inhibition) at 10uM” value is listed as 16.8%.
Take `Cc1ccc(C)c(NC(=O)CN(C)C(=O)Cc2ccccc2)c1`: the “hERG current change (%, negative = inhibition) at 10uM” value was -2.83%.
Take `CCOC(=O)C1CCCN(S(=O)(=O)CCNC(=O)c2ccc(F)cc2)C1` (centres unmarked): the “hERG current change (%, negative = inhibition) at 10uM” value is listed as -16.7%.
In the case of `O=C(N/N=C/c1cccnc1)C(O)c1ccccc1` (centres unmarked), the “hERG current change (%, negative = inhibition) at 10uM” value stood at 16%.
With `CCSc1nnc(NC(=O)NCC(F)(F)F)s1`, the “hERG current change (%, negative = inhibition) at 10uM” value is listed as 2.59%.
`O=C(O)COc1ccc(/C=N/NC(=O)/C(=C/C=C/c2ccccc2)NC(=O)c2ccccc2)cc1`: the “hERG current change (%, negative = inhibition) at 10uM” value was found to be 19.2%.
Take `Cn1c(=O)c2c(nc(SCCN3CCCCC3)n2C)n(C)c1=O`: the “hERG current change (%, negative = inhibition) at 10uM” value is given as 3.49%.
The value for `COc1ccc(C(=O)C(C)OC(=O)c2nc3nccc(C)n3n2)cc1` (centres unmarked) was 2.98%; that for `N#Cc1ccc(C(=O)OCCCc2cc3ccccc3c(=O)o2)cc1` was -69.4%.
Turning to `Cc1ccnc(NS(=O)(=O)c2ccc(NC(=O)c3oc4ccc(F)cc4c3C)cc2)n1`, the “hERG current change (%, negative = inhibition) at 10uM” value is given as -1.75%.
Consider `COc1ccc(-n2c(SCC(=O)Nc3ncc(Cl)cc3Cl)nc3ccccc32)cc1`, for which the “hERG current change (%, negative = inhibition) at 10uM” value is on record as -7.86%.
For `Cc1cc(C(=O)CSc2ccc(Cl)cc2)cc(C)c1OC(=S)N(C)C`, the “hERG current change (%, negative = inhibition) at 10uM” value was 9.6%.
On to `CC(C)c1ccccc1NC(=O)CCCC(=O)O`, for which the “hERG current change (%, negative = inhibition) at 10uM” value is recorded as 6.18%.
The value for `COc1ccc(NC(=O)CNC(=O)Cn2c(C)cc3ccccc3c2=O)cc1OC` was 12.3%.
In the case of `Cc1ccc(-n2c3c(cc(C(=O)O)c2=O)C(=O)CC(C)(C)C3)cc1` it was 19.2%.
As to `Cn1c(O)c(C(C#N)=C2N=c3ccccc3=N2)c2ccccc21`, the “hERG current change (%, negative = inhibition) at 10uM” value is -5.16%.
For the molecule `COCCNC(=O)C(=O)NCC1OCCN1S(=O)(=O)c1cccs1` (centres unmarked), the “hERG current change (%, negative = inhibition) at 10uM” value was 0.574%.
